# Whole data set: some 33,000 sequences, median “E-score (-0.5 to 0.5)” near -0.04, cut for the highest 2% near 0.36. Some of the results follow.
# Target: T1, Hmlalpha2 (UniProt P0CY09)
# T1 sequence: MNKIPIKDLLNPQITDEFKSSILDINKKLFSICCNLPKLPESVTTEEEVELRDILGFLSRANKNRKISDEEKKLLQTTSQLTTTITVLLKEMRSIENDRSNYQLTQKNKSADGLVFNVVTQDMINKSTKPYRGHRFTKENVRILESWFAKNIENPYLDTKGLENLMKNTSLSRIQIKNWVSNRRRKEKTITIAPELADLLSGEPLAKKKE
# Assay: PBM E-score (8-mer binding enrichment) (E-score (-0.5 to 0.5)); higher = stronger / more preferred TF binding; most listed sequences are background and not binding sites
# Conditions: protein concentration: 200 nM; construct: GST-full length
# Procedure, shortened: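 Detection of bound protein used fluorescent anti-GST, with scans normalised by masliner. The proteins were GST-tagged yeast transcription factors applied at about 100-200 nM to universal all-10-mer Agilent arrays made double-stranded by primer extension. Each ungapped eight-base word, pooled with its reverse complement, was scored with an E-score from the Universal PBM Analysis Suite.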
row,Sequence,PBM E-score
1,AGGAGCTG,-0.275
2,ACAGGGCG,0.0441
3,CACACTCC,-0.159
4,TCCAGGGA,-0.244
5,ATCCCGTG,0.108
6,CCTGTCAA,0.154
7,ACTCAGGC,0.00992
8,GTTATGTA,0.419
9,AGCACCCT,-0.222
10,GGCATGGA,-0.113
11,ATCCATTG,-0.0122
12,AGCGCCAG,0.00291
13,CTGAATGC,-0.227
14,ATGCCTGA,-0.15
15,ATTAGCCC,-0.166
16,CTCCCAAG,-0.0969
17,GTCCTTCA,-0.0496
18,CATCCGTC,-0.217
19,CGACAATA,0.203
20,AGATTGCC,-0.187
21,GTGATACA,0.124
22,TCGCATAA,0.0817
23,TACCCCAA,-0.191
24,CCCCAGCG,-0.28
25,CACTCGGG,-0.223

row,Sequence,PBM E-score
1,AAACCCTG,0.051
2,AAAATTAG,0.00411
3,AGGTGCTG,-0.197
4,CATACAAA,0.221
5,AACGAGAC,0.0285
6,AATACAGT,0.166
7,CTCACGTA,0.00392
8,GACCTGCA,-0.192
9,ACATACAA,0.325
10,CGAACGTC,-0.153
11,AAAGGGTT,-0.0891
12,AAGTTTAA,0.132
13,GACACGGC,0.223
14,GGAAGCAA,-0.0502
15,ATCATTTA,0.231
16,CATAAGGC,-0.0696
17,ATTGCGCG,0.177
18,ATGTGGAG,-0.112
19,GAATGCCC,-0.238
20,TCGCAGCA,0.00533
21,CCAGATTC,-0.361
22,CACGCCCG,0.0469
23,GAAACATC,0.0475
24,AAAGATAT,0.0507
25,ACCTAATC,0.108

row,Sequence,PBM E-score
1,AGTAGAGG,-0.226
2,GCCACGAC,-0.0179
3,AGTTACGC,0.202
4,TAACTGTA,0.116
5,CTGACCAG,-0.201
6,ATAGACGG,-0.202
7,AGCGAGAG,-0.142
8,CTACATCA,0.222
9,GAAAGGAA,-0.149
10,AGGTGATG,0.00666
11,TAGTATCA,0.19
12,GCACTGTA,0.0153
13,ATTGGAAC,0.0527
14,AATGACCT,0.0504
15,GTGTGGAA,0.129
16,CCATGGAA,0.0299
17,CTCTGTTA,0.23
18,AACAGCCA,0.125
19,CTCTAATA,0.154
20,ACCTCGTG,0.182
21,ACTTCGCC,-0.0363
22,ATGTCGTC,0.0787
23,GGGCCTAA,-0.264
24,AAGGATAC,-0.00296
25,CGAGTTCA,0.147

row,Sequence,PBM E-score
1,CCACGATA,-0.11
2,CCTTTACA,0.448
3,ACGACCGG,-0.221
4,AAACTGAA,0.0485
5,ACTTATTG,-0.0347
6,AAGGGTTC,-0.253
7,ATTATGTG,0.17
8,CACTGTCA,0.0458
9,CTCGCCTA,-0.237
10,CGCGAGAA,-0.107
11,CAGGAAAA,0.112
12,CCCGCAAA,0.0485
13,TACCTAGA,0.0163
14,AAACAAAA,0.178
15,ACAAAAAA,0.187
16,AACTAGGG,-0.094
17,CAGAAGGA,-0.358
18,GTCCATGA,-0.066
19,GCGCGACC,-0.0639
20,AACCTAAG,-0.0401
21,TTCTTAAA,0.0653
22,AGCCCTCG,-0.0958
23,CAGTTAAA,0.142
24,AACAGATG,0.0895
25,CCGTATGC,-0.273

row,Sequence,PBM E-score
1,GCGATAAC,0.0891
2,CATGTGAG,0.0552
3,GACGACGA,-0.259
4,GGAAATCC,-0.143
5,AAAAACCA,0.121
6,ACGGACTG,-0.0969
7,CGCCTGCA,-0.237
8,CGAACTAA,0.108
9,ATACGTCG,0.0982
10,CGACCATA,-0.177
11,AGCCCGCT,-0.292
12,AAAGACAT,0.0187
13,TACAAATA,0.286
14,AGGGGCAT,-0.0545
15,AAAGTTAC,0.204
16,CATTTGTA,0.284
17,CGGACCAC,-0.104
18,AGACTGAG,-0.279
19,GGTATTAA,0.083
20,CCTGATCA,-0.335
21,AAAGGATC,-0.0701
22,CGTCATCC,-0.102
23,ACGGTCAA,0.0638
24,CCGATTCG,-0.0146
25,CCTGGGAA,-0.0441

row,Sequence,PBM E-score
1,CATTACGA,0.214
2,AACGATAA,0.0196
3,ATAACCCG,-0.197
4,GCACAAAA,0.168
5,ACCCTCTC,-0.21
6,CACCATCG,-0.24
7,GACTGTAC,-0.0265
8,GTCCCTAA,-0.0373
9,CTCGCAAA,-0.0524
10,AGGACGTC,-0.0353
11,AGCAGAGC,-0.151
12,GCCTTGCA,-0.18
13,ATAAAGGG,-0.169
14,ACAATGCC,0.0996
15,AGCATCTC,-0.281
16,CCTCTAAA,-0.127
17,AGAGCGGA,-0.141
18,AATCACCT,0.102
19,ACCAGTAG,0.0137
20,CTTGGATA,-0.0407
21,AAGGGTCT,-0.197
22,GTTTAGGA,-0.179
23,ATTGGCGA,-0.127
24,AGTGTGAG,-0.162
25,CTGTACGA,0.0646

row,Sequence,PBM E-score
1,CAAATCCA,-0.00845
2,CGCCACCG,-0.296
3,AAGGACTT,-0.136
4,ATCTCATC,-0.105
5,AGCCTCAT,-0.227
6,AAACTCTC,0.0417
7,CGAACCCA,-0.05
8,CATGGTTA,0.27
9,GACACTAC,0.125
10,CTAGAATA,0.168
11,ATACTCGC,0.0126
12,GATCACGA,-0.199
13,CCCTACGG,-0.236
14,CGCGTAGC,0.265
15,GGCGTAGA,0.0109
16,CGAGCTCG,0.168
17,CTAACACC,0.153
18,AATTCGCA,-0.0405
19,GGGCTCAA,-0.172
20,GATGCCGC,-0.269
21,GGATCCAC,-0.284
22,CAGAGGTA,0.0532
23,GTCTTCAA,-0.0238
24,ACTAGCGA,-0.0981
25,AAACGGCA,0.0925

row,Sequence,PBM E-score
1,ATACATCA,0.334
2,CAGACATA,0.147
3,CCGCGGAG,-0.238
4,CCTTCAGC,-0.259
5,AGTCTAGA,-0.196
6,TCCAAGGA,-0.173
7,ATTGAGTG,0.0928
8,GATCAGGC,-0.263
9,TACTCCAA,-0.0939
10,AACGAAGG,-0.3
11,TCTTCGCA,0.133
12,CTTCAGTC,-0.203
13,ACGTCAAC,0.194
14,GATCGACA,0.124
15,CGTGCTAA,0.223
16,CCATTTGA,-0.144
17,ACCCTCCC,-0.22
18,GTCGCAGA,-0.169
19,AATCTTGT,0.201
20,AAATGTAG,0.113
21,TACAATCA,0.274
22,AAGAGATA,0.00934
23,ATTCGTAC,0.136
24,ACAGCTCC,-0.092
25,GATGTTCC,-0.0446

row,Sequence,PBM E-score
1,GCTGCCCA,-0.252
2,AGCGTTGG,-0.0565
3,AAGATGGA,-0.256
4,GCTAATCA,0.0512
5,ATTCGCTC,-0.0478
6,CGAAGTCA,-0.15
7,GCGCTGGA,-0.402
8,TATTGCCA,-0.0146
9,ATCGCAAA,0.0675
10,GAGCACTA,-0.0459
11,AGCCGCAT,-0.0538
12,ACATACTA,0.253
13,CTCTAGAC,-0.116
14,ATGAAAAG,-0.0907
15,AACGCTTC,0.119
16,AACCACCA,-0.0618
17,ACCGCGGG,-0.145
18,CTAAAGAA,0.178
19,CATCTCGG,-0.205

# Reference: the supplement of paper PMC3334620
